Source: the supplement of paper PMC7125110
± gives the standard error. This sample is rich in variants without activity.

B1: glmS ribozyme (parent)
chain: AUAAAAGCGCCAGAACUACAGAAAUGUAGUUGACGAGGAGGAGGUUUAUCGAAUUUUCGGCGGAUGCCUCCAAA

Legend:
Conditions in all cases: with glucosamine-6-phosphate
[1] = variants of: B1; experiment: self-cleavage kobs at 40 uM GlcN6P; higher = faster cleavage; RNA array
How it was run: (§1)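 Barcoded ribozyme variants on sequenced MiSeq chips were transcribed in situ by E. coli RNA polymerase and followed at 37 °C through a hybridised Cy3 probe. Glucosamine-6-phosphate at 40 μM to 10 mM in HEPES/KCl/Mg(OAc)2 buffer was flowed in, and tiles were imaged over ~14 h. Signals were normalised to baseline and to non-cleaving reference variants, and per-tile medians were fit to one- or two-exponential decays to give kobs. Weighted Michaelis–Menten fits across concentrations gave kcat and KM.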

[2] = variants of: B1; experiment: self-cleavage kobs at 2500 uM GlcN6P; higher = faster cleavage; RNA array
How it was run: as §1

[3] = variants of: B1; experiment: self-cleavage kobs at 640 uM GlcN6P; higher = faster cleavage; RNA array
How it was run: as §1

[4] = variants of: B1; experiment: self-cleavage kobs at 160 uM GlcN6P; higher = faster cleavage; RNA array
How it was run: as §1

[5] = variants of: B1; experiment: self-cleavage kobs at 10000 uM GlcN6P; higher = faster cleavage; RNA array
How it was run: as §1

Row | Variant | self-cleavage kobs at 40 uM GlcN6P [1] [s⁻¹] | self-cleavage kobs at 2500 uM GlcN6P [2] [s⁻¹] | self-cleavage kobs at 640 uM GlcN6P [3] [s⁻¹] | self-cleavage kobs at 160 uM GlcN6P [4] [s⁻¹] | self-cleavage kobs at 10000 uM GlcN6P [5] [s⁻¹]
1 | C8A A42U G62U | < 1e-05 | < 1e-05 |  |  | 
2 | C11A C34G G38A G43U U55G G63A | < 1e-05 | < 1e-05 | < 1e-05 | < 1e-05 | < 1e-05
3 | G7A C11A A36G G37A | < 1e-05 |  |  |  | < 1e-05
4 | C8A A12C C50U | < 1e-05 |  | < 1e-05 |  | < 1e-05
5 | A6U G13C G63U A64G | < 1e-05 |  |  |  | 
6 | A6G U54G U57C | < 1e-05 |  |  |  | < 1e-05
7 | C8U A36G | < 1e-05 | < 1e-05 | < 1e-05 | < 1e-05 | < 1e-05
8 | A6U G9U | < 1e-05 | < 1e-05 | < 1e-05 | < 1e-05 | 
9 | A4U C10A A48C G59U U65C | < 1e-05 | < 1e-05 | < 1e-05 |  | 
10 | C8U G37U G41U C61U | < 1e-05 |  |  |  | < 1e-05
11 | C10U G41C | < 1e-05 |  |  | < 1e-05 | < 1e-05
12 | C8G G44A U47C | < 1e-05 |  |  |  | < 1e-05
13 | C8G G60C C68A | < 1e-05 |  |  |  | < 1e-05
14 | G7U C10A A15U | < 1e-05 | < 1e-05 | < 1e-05 |  | 
15 | A6U U31A A33U G35U | < 1e-05 |  | < 1e-05 |  | < 1e-05
16 | C11G C16A A33U C58G | < 1e-05 |  |  |  | 
17 | G9A A14G G32U U65A | < 1e-05 | < 1e-05 |  |  | < 1e-05
18 | C10A U46C | < 1e-05 |  | < 1e-05 | < 1e-05 | < 1e-05
19 | G7C U57C | < 1e-05 | < 1e-05 |  | < 1e-05 | < 1e-05
20 | C10A U65G | < 1e-05 | < 1e-05 | < 1e-05 |  | < 1e-05
21 | C10A U65A | < 1e-05 |  | < 1e-05 | < 1e-05 | < 1e-05
22 | C11A U30A G32A C50A | < 1e-05 |  |  |  | 
23 | A6U U30A | < 1e-05 |  |  | < 1e-05 | 2.86e-05 ± 1e-05
24 | C8A A39G | < 1e-05 |  |  | < 1e-05 | < 1e-05
25 | C10U G43U U65C | < 1e-05 |  |  |  | < 1e-05

Row | Variant | self-cleavage kobs at 40 uM GlcN6P [1] [s⁻¹] | self-cleavage kobs at 2500 uM GlcN6P [2] [s⁻¹] | self-cleavage kobs at 640 uM GlcN6P [3] [s⁻¹] | self-cleavage kobs at 160 uM GlcN6P [4] [s⁻¹] | self-cleavage kobs at 10000 uM GlcN6P [5] [s⁻¹]
26 | C10A A53C | < 1e-05 | < 1e-05 | < 1e-05 |  | < 1e-05
27 | G7U C11A C16A G41A | < 1e-05 |  |  |  | 
28 | G7U A42G U49G C70G | < 1e-05 |  |  |  | 
29 | C11A G40A | < 1e-05 |  |  |  | 
30 | A6G U31A U46G C68G | < 1e-05 |  |  |  | < 1e-05
31 | A6G A15U G32U C34G G35A C50U C71A | < 1e-05 |  |  |  | 
32 | G7C G63C C68G U69A | < 1e-05 |  |  |  | < 1e-05
33 | G9C G51A C71U | < 1e-05 |  | < 1e-05 |  | < 1e-05
34 | A6U C8U | < 1e-05 |  |  |  | 
35 | G7A A12G C61G | < 1e-05 |  | < 1e-05 |  | 
36 | C11G G32U A36G G38A A53G | < 1e-05 |  |  |  | 
37 | G9C U57A | < 1e-05 |  |  |  | 
38 | C8U A14U | < 1e-05 | < 1e-05 | < 1e-05 |  | < 1e-05
39 | G7C G51U | < 1e-05 | < 1e-05 | < 1e-05 | < 1e-05 | < 1e-05
40 | G7U C8A G37A | < 1e-05 |  |  |  | 
41 | G7C C8G G9C C11A | < 1e-05 |  |  |  | < 1e-05
42 | C8A G29A G51U | < 1e-05 |  |  |  | < 1e-05
43 | C11U C58G C67U U69G | 3.48e-05 ± 1.2e-05 |  |  |  | 6.72e-05 ± 1.3e-05
44 | C11A G38C G66U | < 1e-05 |  | < 1e-05 |  | < 1e-05
45 | C11U A48G C67G | < 1e-05 | < 1e-05 |  |  | 
46 | C8A A14U C50A U56C | < 1e-05 |  |  |  | 
47 | C10G A52C | < 1e-05 | < 1e-05 | < 1e-05 | < 1e-05 | < 1e-05
48 | C11G U31C | < 1e-05 |  | < 1e-05 |  | 
49 | G9A G13A C34G U49C C68U | < 1e-05 |  |  |  | 
50 | A6G G9A C10A | < 1e-05 |  |  | < 1e-05 | < 1e-05
